Reference: PubChem BioAssay AID1346428 (National Center for Advancing Translational Sciences (NCATS), 2018)
Hit rate of the full screen: of about 48,000 compounds, about 1,200 (2.5%) were called active. About 2% were inconclusive and are not listed.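 Rule for the calls: active = activation of at least 60% and not above a set upper limit (about 1 call in 100 departs from these limits); inconclusive = activation of 40% to 60%, or above that upper limit; inactive = activation under 40%.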 The list shows a part of the results.

Target: Probable G-protein coupled receptor 32 (Homo sapiens) (UniProt O75388)
Assay: qHTS for Agonists of Human Resolvin D1 Receptor DRV1; note: 0% is about no effect
Settings: CHO-K1 GPR32 beta-arrestin PathHunter luminescence, 90 min; at 76.9 µM; stronger effect = higher value; zero percent set by DMSO-only wells
Outline: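 Engineered CHO-K1 line co-expressing GPR32-ProLink and EA-beta-arrestin. Compound treatment lasted 90 min at 37 °C. Luminescence was recorded after 1 h with substrate at ambient temperature, relative to DMSO basal wells.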

Sequence of UniProt O75388 (O75388 whole entry, looked up): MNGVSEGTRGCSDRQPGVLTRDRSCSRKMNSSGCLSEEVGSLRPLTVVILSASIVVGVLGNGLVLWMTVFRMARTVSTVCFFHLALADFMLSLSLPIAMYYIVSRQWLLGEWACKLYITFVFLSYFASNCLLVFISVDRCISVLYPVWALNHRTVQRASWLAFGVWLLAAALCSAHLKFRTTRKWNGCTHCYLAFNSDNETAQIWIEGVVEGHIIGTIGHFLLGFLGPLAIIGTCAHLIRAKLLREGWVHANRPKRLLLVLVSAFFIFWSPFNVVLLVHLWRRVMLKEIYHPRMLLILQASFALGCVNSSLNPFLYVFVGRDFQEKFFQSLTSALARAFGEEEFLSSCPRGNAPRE

Row | SMILES | activation
1 | CC(=O)OC(C)OC(=O)C(C)c1ccc(-c2ccccc2)c(F)c1 (centres undefined) | inactive: 7.81%
2 | Cc1cccc(C)c1NC(=O)CSc1nc(-c2cccs2)cc(C(F)(F)F)n1 | inactive: -9.84%
3 | CC(C)NC(=O)CCSc1nc(-c2ccc3c(c2)OCO3)cc(C(F)(F)F)n1 | inactive: -1.19%
4 | CC(C)CCn1c(SCc2c(F)cccc2Cl)nc2ccsc2c1=O | inactive: -17.8%
5 | Cc1cn2c(=O)cc(COc3ccc(C(C)(C)C)cc3)nc2s1 | inactive: -12.7%
6 | O=C(Nc1ccc(F)c(Cl)c1)C1CCCN(S(=O)(=O)c2cccc3nsnc23)C1 (centres undefined) | inactive: -2.39%
7 | CCOc1ccccc1N(CC)C(=O)c1ccc2c(=O)n3c(nc2c1)CCCCC3 | inactive: -16.4%
8 | Nc1nonc1-c1nc2ccccc2n1CC(=O)Nc1ccccc1C(=O)O | inactive: -4.11%
9 | CN(c1nccc(=O)[nH]1)C1CCN(c2nc3ccccc3n2Cc2ccc(F)cc2)CC1 | inactive: -3.93%
10 | CN(C)S(=O)(=O)N1CCC(N2CCN(Cc3ccc(F)cc3)C(=O)C2=O)CC1 | inactive: -8.07%
11 | CCOc1ccc(CCNC(=O)CSCc2nc(-c3cccc(C)c3)oc2C)cc1OCC | inactive: -12.1%
12 | N#Cc1ccccc1Cn1c(SCC(=O)NCc2ccccc2)nc2ccccc21 | inactive: -12.7%
13 | CCc1cccc2c(-c3ccccc3)nc(SCC(=O)Nc3ccc(OC)cc3)nc12 | inactive: 2.63%
14 | CCOc1ccc2nc(NC(=O)c3nc(SC(C)C)ncc3Cl)sc2c1 | inactive: -11.9%
15 | C[N+](C)(C)CC(=O)O | inactive: -0.955%
16 | CC1CCN(C(=O)Cn2c(=O)n(-c3ccc(Cl)cc3)c(=O)c3c4c(sc32)CCC4)CC1 | inactive: 19.7%
17 | O=C(Cn1c(=O)c2cccn2c2ccc(F)cc21)NCc1cccc(Cl)c1 | inactive: -5.63%
18 | O=C(O)c1ccccc1C(=O)Nc1ccc(S(=O)(=O)Nc2nccs2)cc1 | inactive: -5.92%
19 | CN(C)S(=O)(=O)c1ccc(C(=O)N(Cc2cccnc2)c2nc3c(F)cc(F)cc3s2)cc1 | inactive: -1.71%
20 | Cc1cc2nn(-c3ccccc3)nc2cc1NC(=O)Cc1ccc(Cl)cc1 | inactive: -13.1%
21 | CC(C)N(Cc1ccccc1)S(=O)(=O)c1ccc(N2CCCCS2(=O)=O)cc1 | inactive: 4.16%

Row | SMILES | activation
22 | COc1ccccc1NC(=O)C(=O)NCC(c1cccnc1)N1CCc2ccccc2C1 (centres undefined) | inactive: -0.94%
23 | O=C(NCc1ccc(F)cc1)c1ccc2oc(=O)n(Cc3ccccc3)c2c1 | inactive: 10.5%
24 | COC(=O)c1ccc(NC(=O)CCc2c(C)nn(-c3ccc(N4CCCCC4)nn3)c2C)cc1 | inactive: -20.2%
25 | COc1ccc(-n2nc(C(=O)Nc3cc(C)ccn3)c3c4ccccc4n(C)c3c2=O)cc1Cl | inactive: 11.8%
26 | CC(=O)Nc1nonc1-c1nnc(SCc2ccccc2)n1C | inactive: -0.677%
27 | COC(=O)c1cccc(CN2C(=O)SC(Nc3ccc(C)cc3)C2=O)c1 (centres undefined) | inactive: -90%
28 | Cc1ccccc1CNC(=O)C(=O)NCC(c1cccs1)S(=O)(=O)c1cccs1 (centres undefined) | inactive: -2.5%
29 | C=Cc1ccc(Cn2c(SCC(=O)N3CCN(c4ccc(F)cc4)CC3)nc3ccccc32)cc1 | inactive: -9.74%
30 | O=c1c2oc3ccccc3c2n(Cc2cccc(F)c2)c(=O)n1Cc1ccc2c(c1)OCO2 | inactive: -23.8%
31 | CCOc1ccc(-c2cc(C(=O)NCCc3ccc(OC)c(OC)c3)[nH]n2)cc1 | inactive: 3.68%
32 | CN1CC(=O)N(CC(=O)Nc2ccc(OC(F)(F)F)cc2)c2ccccc2C1=O | inactive: -32.6%
33 | CCc1ccc(NC(=O)Cn2c(=O)c3cc(Cl)ccc3n3nncc23)cc1 | inactive: -3.2%
34 | COc1cc(C2CC(=O)Nc3c2c(=O)n(C)c2ncnn32)cc(OC)c1OC (centres undefined) | inactive: -1.46%
35 | CCOC(=O)c1c(NC(=O)c2cc(CC)on2)sc(C(C)=O)c1C | inactive: -8.42%
36 | C[C@@]12CCC[C@H]1[C@@H]1CC[C@H]3C[C@@H](O)CC[C@]3(C)[C@H]1CC2 | inactive: -41.7%
37 | Cc1ccc(S(=O)(=O)c2cn(CC(=O)Nc3ccc(Cl)cc3)c3ccc(F)cc3c2=O)cc1C | inactive: -3.32%
38 | Nc1cc(Cl)c(NC2=NCCN2)c(Cl)c1 | inactive: -0.0115%
39 | Cc1cccc(NC(=O)/C(C#N)=C/c2ccc(C)o2)c1 | inactive: -4.72%
40 | CCOC(=O)c1ccc(NC(=O)CCc2nc3cccnc3n2Cc2cccs2)cc1 | inactive: 45.7%
41 | CC(=O)c1ccc(N2CCN(c3ccc4cc(S(=O)(=O)N5CCC(C)CC5)ccc4n3)CC2)cc1 | inactive: -2.84%
42 | COc1ccc(N2CCN(C(=O)C3CCN(c4nc5ccc(C)cc5[nH]4)CC3)CC2)cc1 | inactive: -1.16%

Row | SMILES | activation
43 | COc1ccc(CCN2CCC(CNC(=O)c3cnn(-c4cccc(Cl)c4)c3C3CCN(C(=O)OC(C)(C)C)CC3)CC2)cc1 | inactive: -20.8%
44 | Cc1cccc(Cn2c(Cc3ccccc3)nc3ccccc32)c1 | inactive: -42.4%
45 | O=C(CN1c2ccccc2S(=O)(=O)c2ccccc21)Nc1cccc(C(F)(F)F)c1 | inactive: 1.8%
46 | CSc1ccc(CCNC(=O)c2c(C)oc3ncn(C)c(=O)c23)cc1 | inactive: -0.32%
47 | CCOc1cc(S(=O)(=O)NCCc2c(C)[nH]c3ccc(C)cc23)ccc1Br | inactive: 24.5%
48 | Cc1cc(C)cc(-n2c(SCC(=O)NC3CCCCC3)nc3c([nH]c4ccccc43)c2=O)c1 | inactive: -11%
49 | Cc1c(Cl)cccc1Nc1nn2c(=O)c3ccc(C(=O)N(C)Cc4ccccc4)cc3nc2s1 | inactive: -6.34%
50 | COc1ccc(NC(=O)c2cc3c(C)nn(-c4ccccc4)c3s2)c(OC)c1 | inactive: -9.51%
51 | Cc1ccc2nc(COc3cccc(NC(=O)COc4ccc(F)cc4)c3)cc(=O)n2c1 | inactive: -0.254%
52 | Cc1ccc(NC(=O)CCS(=O)(=O)c2ccc3c(c2)oc(=O)n3C)c(Br)c1 | inactive: -0.886%
53 | O=c1[nH]c(SCc2c(F)cccc2Cl)nc2c1CCCC2 | inactive: 19.5%
54 | COc1ccc(-c2nc(CSCC(=O)N3CCN(c4ccccc4)CC3)c(C)o2)cc1 | inactive: -0.536%
55 | COc1ccc(N2CCN(C(=O)CSCc3ccc(C)cc3)CC2)cc1 | inactive: -24.9%
56 | CC(=O)c1cccc(NS(=O)(=O)c2cccc(S(=O)(=O)c3ccc(Br)cc3)c2)c1 | active: 62.9%
57 | CN(C)C(=O)/N=N/C(=O)N(C)C | inactive: 17.1%
58 | COCCNC(=O)c1[nH]c2cc(C)ccc2c1Sc1ccc(Cl)cc1 | inactive: -16.7%
59 | O=C(Nc1cccc(-c2nc3ccccc3o2)c1)c1cccc2c(Cl)cccc12 | inactive: -6.12%
60 | Cc1c(Cl)cccc1NC(=O)c1cc2nc(-c3ccc4c(c3)OCO4)cc(C(F)(F)F)n2n1 | inactive: 3.99%
61 | CC(C)OC(=O)OCOP(=O)(CO[C@H](C)Cn1cnc2c(N)ncnc21)OCOC(=O)OC(C)C | inactive: 7.67%
62 | O=C(COc1ccccc1)OCc1cc(=O)n2nc(-c3cccs3)sc2n1 | inactive: -0.94%
63 | CC(C)(C)OC(=O)N1CCC(c2c(C(=O)Nc3ccc4c(c3)OCO4)cnn2-c2ccccc2)CC1 | inactive: 3.59%

Row | SMILES | activation
64 | CCc1nn(CC(=O)NC(C)CC)c(=O)c2cc3occc3n12 (centres undefined) | inactive: 1.99%
65 | COc1ccc(CNC(=O)c2cnc3ccc(C)cn3c2=O)cc1 | inactive: 5.46%
66 | COc1cccc(OCCn2c(-c3ccc(Br)cc3)nc3ccccc3c2=O)c1 | inactive: -9.89%
67 | O=C(NCc1ccc2c(c1)CCN2C(=O)c1ccncc1)c1ccccc1F | inactive: -15.6%
68 | COC(=O)c1c(-c2cccs2)csc1NC(=O)c1ccc(C(C)C)cc1 | inactive: -3.72%
69 | COc1ccccc1CNc1ncnc2c1nnn2C | inactive: 4.22%
70 | CCOCCCn1c(=N)c(S(=O)(=O)c2ccc(Cl)cc2)cc2c(=O)n3cccc(C)c3nc21 | inactive: -3.67%
71 | COC(=O)c1ccccc1NC(=O)CCS(=O)(=O)c1nc(-c2ccc3c(c2)OCO3)cc(C(F)(F)F)n1 | inactive: -12.8%
72 | COc1ccc(CNC(=O)CCNS(=O)(=O)c2ccc3c(c2)CCCC(=O)N3)cc1 | inactive: 16.2%
73 | Cc1ccc(Cn2c(CCNC(=O)C(C)C)nc3ccccc32)cc1 | inactive: -10.6%
74 | Cc1ccc(Cl)cc1N(C)C(=O)C1CCCN(c2ncnc3onc(-c4ccc(F)cc4)c23)C1 (centres undefined) | inactive: -22%
75 | COc1ccc(-c2nc(SCC(=O)NCc3ccccc3Cl)n[nH]2)cc1 | inactive: -6.83%
76 | O=C(Cn1nc(-c2ccc(Cl)cc2)ccc1=O)NCCc1ccccc1 | inactive: -7.07%
77 | C=C1C[C@@]23CC[C@H]4[C@@](C)(CCC[C@@]4(C)C(=O)OC4OC(CO)C(O)C(O)C4O)[C@@H]2CC[C@]1(OC1OC(CO)C(O)C(O)C1OC1OC(CO)C(O)C(O)C1O)C3 (some centres undefined) | inactive: -2.41%
78 | CCOC(=O)CCc1c(C)nc2c(c(C)nn2-c2ccc(C)cc2)c1C | inactive: -1.52%
79 | O=C(C1CCC1)N1CCc2cc(S(=O)(=O)NCCc3ccccc3)ccc21 | inactive: 3.83%
80 | Cc1nn(-c2ccc(N3CCCC3)nn2)c(C)c1CCC(=O)N1CCN(c2ccccc2F)CC1 | inactive: -15.3%
81 | CCOC(=O)c1cnc(N2CCN(c3ccc(OC)cc3)CC2)c2ccccc12 | inactive: -34.5%
82 | CC1CCN(S(=O)(=O)c2csc(C(N)=O)c2)CC1 | inactive: -8.37%
83 | COc1ccccc1N1CCN(c2ncnc3c2c(-c2ccccc2)cn3-c2cccc(C)c2)CC1 | inactive: -6.72%
84 | CCOC(=O)c1c(S(=O)(=O)NCC(=O)N(C)Cc2ccccc2)c(C)n(C)c1C | inactive: 0.271%
